Data taken from article PMC5834211.
No constants are given. Whether binding was seen depends on the method and setting. For some of these results: In cells and extracts the contact can be indirect. Some results given as binding are weak or reduced against the parent protein; the word gives no strength. For some of these results: Tags and fused reporters may be left off the sequences shown.

T1: endogenous DHX29 (THP-1 cells) (human (endogenous in THP-1)) (UniProt Q7Z478)
T1 sequence: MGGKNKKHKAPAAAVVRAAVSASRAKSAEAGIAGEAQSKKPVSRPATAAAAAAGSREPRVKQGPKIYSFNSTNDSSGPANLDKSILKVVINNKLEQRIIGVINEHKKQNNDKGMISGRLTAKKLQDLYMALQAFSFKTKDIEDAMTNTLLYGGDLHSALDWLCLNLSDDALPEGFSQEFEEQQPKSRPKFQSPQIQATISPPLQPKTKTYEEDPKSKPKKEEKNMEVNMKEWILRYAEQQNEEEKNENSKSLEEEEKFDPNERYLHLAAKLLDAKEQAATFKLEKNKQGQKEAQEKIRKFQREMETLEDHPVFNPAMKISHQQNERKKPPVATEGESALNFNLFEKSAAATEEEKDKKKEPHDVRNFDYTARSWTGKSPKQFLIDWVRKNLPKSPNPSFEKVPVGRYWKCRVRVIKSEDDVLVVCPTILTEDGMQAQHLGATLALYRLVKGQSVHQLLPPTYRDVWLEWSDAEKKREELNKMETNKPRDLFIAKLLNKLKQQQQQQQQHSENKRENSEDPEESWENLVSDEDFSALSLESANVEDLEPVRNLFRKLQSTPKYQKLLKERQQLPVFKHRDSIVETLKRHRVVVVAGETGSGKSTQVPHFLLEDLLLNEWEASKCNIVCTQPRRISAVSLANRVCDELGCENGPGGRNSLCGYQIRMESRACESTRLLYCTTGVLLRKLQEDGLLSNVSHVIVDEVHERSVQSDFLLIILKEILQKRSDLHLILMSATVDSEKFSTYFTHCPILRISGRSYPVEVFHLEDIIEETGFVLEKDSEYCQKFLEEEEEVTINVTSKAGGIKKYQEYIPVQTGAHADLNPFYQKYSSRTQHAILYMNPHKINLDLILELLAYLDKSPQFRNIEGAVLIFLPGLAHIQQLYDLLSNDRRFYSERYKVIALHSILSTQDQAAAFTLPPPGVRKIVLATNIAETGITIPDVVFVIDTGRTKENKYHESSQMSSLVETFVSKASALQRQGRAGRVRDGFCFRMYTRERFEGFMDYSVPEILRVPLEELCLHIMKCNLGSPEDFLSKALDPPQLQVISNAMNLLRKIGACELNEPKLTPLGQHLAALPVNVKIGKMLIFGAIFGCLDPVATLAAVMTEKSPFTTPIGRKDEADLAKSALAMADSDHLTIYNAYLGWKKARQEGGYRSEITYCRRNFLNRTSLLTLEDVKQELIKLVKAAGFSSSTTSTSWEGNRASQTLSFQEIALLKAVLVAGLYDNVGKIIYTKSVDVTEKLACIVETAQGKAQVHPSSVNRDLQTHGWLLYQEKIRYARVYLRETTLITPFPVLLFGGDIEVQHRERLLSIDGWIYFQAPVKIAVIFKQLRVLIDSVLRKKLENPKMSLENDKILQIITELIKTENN

T2: Flag-MDA5 (full-length, FL-MDA5) (UniProt Q9BYX4)
T2 sequence: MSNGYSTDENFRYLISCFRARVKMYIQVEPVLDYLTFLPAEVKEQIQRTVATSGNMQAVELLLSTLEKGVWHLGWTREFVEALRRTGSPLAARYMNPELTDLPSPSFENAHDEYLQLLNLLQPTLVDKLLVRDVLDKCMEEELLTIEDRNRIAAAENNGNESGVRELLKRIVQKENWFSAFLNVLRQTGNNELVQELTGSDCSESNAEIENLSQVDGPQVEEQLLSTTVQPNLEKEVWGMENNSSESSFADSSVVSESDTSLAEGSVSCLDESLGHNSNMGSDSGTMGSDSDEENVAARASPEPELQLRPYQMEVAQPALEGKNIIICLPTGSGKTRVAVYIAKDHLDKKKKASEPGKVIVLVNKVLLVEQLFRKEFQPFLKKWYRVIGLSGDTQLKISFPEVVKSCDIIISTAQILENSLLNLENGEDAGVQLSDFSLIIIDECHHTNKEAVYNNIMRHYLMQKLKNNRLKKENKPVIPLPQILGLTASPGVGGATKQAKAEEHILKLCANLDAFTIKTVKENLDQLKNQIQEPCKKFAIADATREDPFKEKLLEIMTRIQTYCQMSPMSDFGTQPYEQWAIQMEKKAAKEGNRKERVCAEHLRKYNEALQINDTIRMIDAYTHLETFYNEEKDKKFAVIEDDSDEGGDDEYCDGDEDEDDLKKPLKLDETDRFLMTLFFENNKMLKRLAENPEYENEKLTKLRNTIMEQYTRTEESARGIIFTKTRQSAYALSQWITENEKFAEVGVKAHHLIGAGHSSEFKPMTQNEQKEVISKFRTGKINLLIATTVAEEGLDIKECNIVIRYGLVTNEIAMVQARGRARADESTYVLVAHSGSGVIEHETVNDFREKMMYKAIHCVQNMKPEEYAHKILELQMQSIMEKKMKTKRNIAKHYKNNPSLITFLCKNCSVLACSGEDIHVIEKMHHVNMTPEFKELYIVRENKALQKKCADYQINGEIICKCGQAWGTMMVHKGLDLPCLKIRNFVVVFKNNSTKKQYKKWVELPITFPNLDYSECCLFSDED

T3: Flag-LGP2 (UniProt Q96C10)
T3 sequence: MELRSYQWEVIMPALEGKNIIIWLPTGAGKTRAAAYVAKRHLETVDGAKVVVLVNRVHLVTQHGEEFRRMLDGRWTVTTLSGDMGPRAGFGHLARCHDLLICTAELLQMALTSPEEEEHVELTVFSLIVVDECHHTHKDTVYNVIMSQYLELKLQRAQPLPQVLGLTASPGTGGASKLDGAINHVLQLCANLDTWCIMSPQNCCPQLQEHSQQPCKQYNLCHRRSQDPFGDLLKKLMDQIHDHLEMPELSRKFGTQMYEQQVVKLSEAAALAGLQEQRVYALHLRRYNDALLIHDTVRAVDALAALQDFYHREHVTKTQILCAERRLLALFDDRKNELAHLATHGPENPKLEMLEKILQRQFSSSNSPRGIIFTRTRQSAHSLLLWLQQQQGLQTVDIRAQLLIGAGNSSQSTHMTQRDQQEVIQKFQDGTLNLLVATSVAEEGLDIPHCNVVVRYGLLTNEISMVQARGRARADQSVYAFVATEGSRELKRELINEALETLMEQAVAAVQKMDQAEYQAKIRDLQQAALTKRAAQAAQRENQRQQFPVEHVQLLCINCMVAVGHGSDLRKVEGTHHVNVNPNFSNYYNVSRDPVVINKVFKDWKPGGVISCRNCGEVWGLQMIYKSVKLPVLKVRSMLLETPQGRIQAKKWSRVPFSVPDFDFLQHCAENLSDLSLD

B1: endogenous MDA5 (THP-1 cells) (protein, UniProt Q9BYX4 1-1025)
chain: T2 sequence
B2: HA-DHX29 (full-length, FL-DHX29) (protein, UniProt Q7Z478 1-1369)
chain: T1 sequence

Experiments:
[1] = target: T1, endogenous DHX29 (THP-1 cells) (human (endogenous in THP-1)); experiment: co-IP; THP-1 cells treated with HMW Poly(I:C) or infected with EMCV (MOI 10) at the indicated time points; immunoprecipitation with anti-DHX29 antibody, immunoblot with anti-MDA5
[2] = target: T1, endogenous DHX29 (THP-1 cells) (human (endogenous in THP-1)); experiment: condition: only cells stimulated with intracellular LMW Poly(I:C); co-IP; THP-1 cells stimulated with intracellular LMW Poly(I:C) (text; the legend of S5F says HMW); immunoprecipitation with anti-DHX29 antibody, immunoblot with MDA5 antibody
[3] = target: T2, Flag-MDA5 (full-length, FL-MDA5); experiment: co-IP; 293T cells cotransfected; whole cell lysates immunoprecipitated with anti-Flag beads, immunoblotted with anti-HA and anti-Flag (S5A, Fig 5I, S6A); in S5E with 20 ng Flag-MDA5 and intracellular HMW Poly(I:C) at the indicated time points
Flag-LGP2 [4] = target: T3, Flag-LGP2; experiment: co-IP; as S5G and S5H but less stringent cell lysis buffer containing 0.1% NP-40; anti-Flag beads, immunoblot with anti-HA
Flag-LGP2 [5] = target: T3, Flag-LGP2; experiment: condition: only stringent lysis buffer containing 1% Triton X-100; co-IP; 293T cells transfected with HA-DHX29 and Flag-RIG-I, Flag-MDA5 or Flag-LGP2, various kinds of stimulation (8 hr; EMCV 6 hr); stringent lysis buffer containing 1% Triton X-100; anti-Flag beads, immunoblot with anti-HA
[6] = target: T2, Flag-MDA5 (full-length, FL-MDA5); experiment: pull-down; purified HA-DHX29 and Flag-MDA5 co-incubated with or without HMW Poly(I:C) for 4 h; pull-down with anti-Flag beads, immunoblot with anti-Flag or anti-HA; both purified
[7] = target: T2, Flag-MDA5 (full-length, FL-MDA5); experiment: co-IP; 293T cells transfected with HA-DHX29 and Flag-RIG-I, Flag-MDA5 or Flag-LGP2, various kinds of stimulation (8 hr; EMCV 6 hr); stringent lysis buffer containing 1% Triton X-100; anti-Flag beads, immunoblot with anti-HA

Binder	binding [1]	binding [2]	binding [3]	binding (Flag-LGP2 [4])	binding (Flag-LGP2 [5])	binding [6]	binding [7]
B1	binds	no binding	–	–	–	–	–
B2	–	–	binds	binds weakly	no binding	binds	binds
